Laboratory results taken from ChEMBL document CHEMBL4888484, “Replenishing the malaria drug discovery pipeline: Screening and hit evaluation of the MMV Hit Generation Library 1 (HGL1) against asexual blood stage Plasmodium falciparum ,using a nano luciferase reporter read-out” (2022).
The whole screen tested about 150,000 compounds, of which about 540 (0.36%) showed an effect of 50% or more. Some of the results follow.

tested on: Plasmodium falciparum; assay: Primary screen in NF54 nanoGlo assay, in single point, at 2uM, 72h; a lower Z score goes with more inhibition; type: functional, Erythrocyte; conditions: timepoint 72 hour

| Compound | % Inhibition [%] | Z score |
| --- | --- | --- |
| Cc1cnccc1CCNCC12CC(CN1C(=O)OC(C)(C)C)C2 | -6 | 0.55 |
| CC(C)c1cccc(OCC(=O)NC2CCC(Oc3cnccn3)CC2)c1 (configuration not stated) | -8 | 1.14 |
| CCOC(=O)c1sc([C@H](C)Nc2ncc(Cl)cn2)nc1C | -2 | 0.21 |
| CO[C@H]1COCC[C@@H]1NS(=O)(=O)c1c(C)cc(C)c2nonc12 | -8 | 0.86 |
| CCOC(=O)N1N=C(C)C[C@]1(O)c1cccnc1 | -21 | 2.29 |
| COc1ccc(Nc2cc(C(C)C)nc3nc(-c4cccnc4)nn23)cc1 | -5 | 0.74 |
| Cc1ncc(CNC(=O)N(CCC(F)(F)F)C2CCC2)s1 | 30 | -3.44 |
| CC(=O)N1CCC(Cc2ccc(C(=O)N3CCc4ccccc4C3)cc2)CC1 | 2 | -0.2 |
| CCCCOc1ccc(-c2cc3c4nnc(CCC(=O)NC5CCCC5)n4ccn3n2)cc1 | 7 | -0.97 |
| COc1ccc(NC2CC3CCC2C3)cc1OC (configuration not stated) | -6 | 1.19 |
| Cc1ccc([C@@](C)(O)CNS(=O)(=O)c2cnn(C)c2)o1 | 0 | 0.06 |
| COc1nccnc1O[C@H]1CCCN(C(=O)Cc2ccccc2)C1 | -5 | 0.88 |
| COc1ccc2cc3c(nc2c1)N(C(=O)C(C)(C)C)CC3 | -3 | 0.29 |
| C[C@@H](CNc1ncnc2ccsc12)CN1CCCC1=O | -3 | 0.26 |
| Cn1cncc1C1CCN(C(=O)Cc2ccc(Cl)cc2)CC1 | 0 | 0.03 |
| CCOc1ccc(-c2nc(CS(=O)(=O)Cc3coc(-c4ccccc4)n3)cs2)cc1OC | 6 | -0.7 |
| Cc1ccc(C(=O)NCc2ccc(F)cc2)c(C2CCN(CC3CC3)CC2)n1 | -2 | 0.29 |
| Cc1ccnc(NS(=O)(=O)c2cc(C)sc2C)n1 | 1 | -0.06 |
| CCNC(=O)C(C)N1C(=O)NC(C)(c2ccc3c(c2)OCO3)C1=O (configuration not stated) | 3 | -0.37 |
| CC[C@H](OC)C(=O)N1Cc2nc(C)[nH]c(=O)c2C1 | -3 | 0.43 |
| CCn1nccc1C(=O)N1CC(c2nc(CCOCc3ccccc3)no2)C1 | -6 | 0.84 |
| O=C(NCCc1nccs1)[C@@H]1CCCCn2nnnc21 | -15 | 1.6 |

| Compound | % Inhibition [%] | Z score |
| --- | --- | --- |
| Cc1csc2ncnc(NCc3cccnc3N3CCOCC3)c12 | 4 | -0.71 |
| CCn1nc(CC(C)C)cc1C(=O)N(C)CCc1ccccn1 | -3 | 0.61 |
| Cc1noc(-c2cccnc2N2CCCO[C@@H](C)C2)n1 | -13 | 1.58 |
| O=C1C[C@@H](c2ccccc2)N(C(=O)CNC(=O)c2ccco2)CCCCCN1 | -18 | 2.36 |
| Cc1ccsc1[C@H]1CCN(C2CCN(Cc3ccccn3)CC2)C[C@@H]1O | 0 | -0.04 |
| Cc1ccc(S(=O)(=O)Nc2cccc(-c3nc(-c4ccccc4C)co3)c2)cc1 | -11 | 1.42 |
| O=C(CCN[C@@H](CO)C(=O)O)c1ccc(Br)cc1 | -4 | 0.5 |
| c1csc(-c2nnc(CN3CC[C@]4(CCOC4)C3)o2)c1 | -7 | 0.88 |
| Cc1ccc(S(=O)(=O)c2cn(C[C@H]3CCCO3)c(=O)n(-c3ccccc3)c2=O)cc1 | 3 | -0.34 |
| COc1ccccc1-c1cn[nH]c1-c1ccc(OCc2cc(C)ccc2C)cc1O | 0 | 0 |
| COC[C@@H](O)CNCc1cc2cc(C)c(C)cc2o1 | -14 | 1.22 |
| COc1ccc([C@@H](NC(=O)CN2C(=O)N(C)C3(CCCCC3)C2=O)c2nccn2C)cc1 | -2 | 0.26 |
| COc1ccc(CCNC(=O)Cn2c(=O)n(Cc3ccccc3)c(=O)c3cc(Cl)ccc32)cc1OC | 2 | -0.27 |
| CN(Cc1cc(C2CC2)on1)Cc1cccnc1N | -7 | 1.32 |
| C[C@@](O)(CNS(=O)(=O)c1cccnc1)Cc1ccco1 | -17 | 2.43 |
| CC(C)OC1CN(C(=O)[C@H]2CCC(=O)N(c3cnn(C)c3)C2)C1 | 1 | -0.22 |
| CCN(CCNS(=O)(=O)c1ccccc1)CC(=O)Nc1ccc(NC(C)=O)cc1 | 30 | -2.69 |
| COc1cccc(NC(=O)Nc2ccnc(OC)n2)c1 | -5 | 0.82 |
| Cc1cc2n(CCNS(=O)(=O)N(C)C)ccn2n1 | -3 | 0.62 |
| O=C(Cn1nc(C(=O)N2CCCC2)ccc1=O)Nc1ccccc1F | -10 | 2.06 |
| Cc1noc(C)c1S(=O)(=O)N(C)Cc1ccc(C2CC2C)o1 (configuration not stated) | 2 | -0.21 |
| CCC(NC(=O)NC(C)c1cn(C)nc1C)c1nccs1 (configuration not stated) | -10 | 1.85 |

| Compound | % Inhibition [%] | Z score |
| --- | --- | --- |
| O=S1(=O)CC[C@H](CNS(=O)(=O)c2ccc(Cl)s2)C1 | 5 | -0.72 |
| Cc1ccc(-c2cc(C(F)(F)F)on2)cc1S(=O)(=O)N1CCCC[C@@H]1C | -4 | 0.61 |
| Cc1nccn1[C@@H](C)C(=O)NCCn1nnc2ccccc21 | -23 | 2.94 |
| N#Cc1ccc(C(=O)N2CCC3(CCC(=O)N(CCc4ccncc4)C3)CC2)cc1 | -15 | 1.39 |
| COCCN1CC2(CCC1=O)CCN(CCCC(=O)c1ccccc1)CC2 | -7 | 0.86 |
| CC(=O)c1ccc(CN2CCC3(CC2)N=C(c2ccccn2)NC3=O)cc1 | 2 | -0.25 |
| CCC[C@H]1CN(C(=O)c2csc(C)n2)C[C@@H]1N(C)C | -8 | 0.8 |
| Cc1nsc(NC(=O)N2CCC(CN3CCCC3=O)CC2)n1 | 6 | -0.82 |
| CCOc1ccc(C(=O)NC[C@@H](C(C)C)N(CC)CC)cc1 | -6 | 1.13 |
| CCn1c(CCc2ccc(NC(=O)Nc3cc(Cl)c(OC)cc3OC)cc2)nc2ccccc21 | -12 | 1.86 |
| O=C(Nc1ccccn1)c1ccc2c(c1)OCCO2 | -5 | 0.7 |
| Cc1c(CNc2nnc(Cc3ccc(F)cc3)s2)cnn1C | -11 | 1.42 |
| Cc1cc2[nH]c(=O)[nH]c2cc1-n1ccnc1-c1cc2n(n1)CCCNC2 | -6 | 0.99 |
| O=C1CCc2cc(OS(=O)(=O)c3ccc4c(c3)OCCO4)ccc2N1 | 30 | -3.86 |
| Cc1nnnn1CCc1ncnn1CCc1ccccc1 | 3 | -0.47 |
| O=C(NCc1noc(CCc2ccccc2)n1)c1ccccc1 | -8 | 1.16 |
| CN(C(=O)[C@@H]1COc2ccccc2C1)C1CCS(=O)(=O)CC1 | 0 | -0.03 |
| O=C(O)CNC(=O)CN1Cc2cc(Cl)ccc2C[C@H]1c1ccccc1 | -6 | 0.52 |
| CCCc1nc(NC[C@H]2CCN(CCC)C2)no1 | -13 | 1.17 |
| Cc1ccc([C@H](C)NCC2(CS(C)(=O)=O)CC2)o1 | -11 | 1.5 |
| O=C(C1CCCC1)N1CCN(c2ccc(-c3noc(C(F)(F)F)n3)cn2)CC1 | 20 | -2.64 |
| CC1CCN(C(=O)c2ccccc2N2CCC(NC(=O)c3ccc(F)cc3F)CC2)CC1 | 10 | -1.4 |

| Compound | % Inhibition [%] | Z score |
| --- | --- | --- |
| COCCN(Cc1ccc(C)o1)C[C@H](C)O | 9 | -1.03 |
| CCOCCO/C(=N/C(=O)c1ccc(C(F)(F)F)cc1)NCc1ccc2c(c1)OCO2 | -11 | 0.93 |
| O=C(CC1(N2Cc3ccccc3C2=O)CCCCC1)NCCCn1ccnc1 | -7 | 1.18 |
| COCc1ncc(CN2CCC3(CCC(=O)N(Cc4ccccc4)C3)CC2)cn1 | -4 | 0.79 |
| CN(CC(N)=O)C(=O)CCc1ccc(Cl)s1 | -6 | 0.7 |
| CCn1nnc2ccc(-c3noc(CCc4c[nH]c5ccccc45)n3)cc21 | -9 | 1.48 |
| Cc1ccc(S(=O)(=O)NCc2ccc3c(c2)N(C(=O)c2ccccc2)[C@@H](C)C3)c(C)c1 | 4 | -0.67 |
| Cc1cccnc1CNC(=O)N[C@@H](C)c1cnn(C)c1 | -8 | 1.07 |
| O=C(Nc1ccc(Cl)c(Cl)c1)N1CCN=C1c1cccc(Cl)c1 | 5 | -0.65 |
| Cc1cc(C)cc(CN2CCN(C(=O)CCCS(N)(=O)=O)CC2=O)c1 | -1 | 0.14 |
| CCc1ccc2c(c1)C(=C1SC(C(=O)OC)=C(C(=O)OC)S1)C(=S)C(C)(C)N2 | -5 | 0.62 |
| Cc1noc(COCC(=O)N[C@H]2COc3c2ccc(C)c3C)n1 | -7 | 1.09 |
| Cc1cc(CNC(=O)[C@]2(C)CC[C@H](C)C2(C)C)n(C)n1 | 5 | -0.6 |
| CC1(C)C[C@H](S(=O)(=O)N2CCN(c3nc[nH]n3)CC2)CO1 | -1 | 0.17 |
| CC(C)c1noc(CN(C)C[C@H]2CCCCO2)n1 | -11 | 2.01 |
| Cc1c[nH]c(C(=O)N(C)Cc2ccc3c(c2)OCO3)n1 | -5 | 0.65 |
| CC(C)(C)Oc1ccc(-c2noc(-c3cc(C(N)=O)cs3)n2)nc1 | -9 | 0.95 |
| CCCCS(=O)(=O)N[C@H](c1ccccc1)C1CC1 | -1 | 0.09 |
| Cc1ccccc1C1(CNCc2c(C)noc2C)CC1 | -4 | 0.51 |
| OCc1ccnc(-c2ccc(OCc3ccccc3)nc2)c1 | -1 | 0.18 |
